Some of the results follow. At the low end of the ranking the order means little.
These sequences were tested against SIX1-Q177R homeodomain (UniProt Q15475) (assay: universal protein binding microarray). Conditions: Universal all-10-mer PBM (8x60K, AMADID 030236), 300 nM GST-tagged protein, Alexa Fluor 488 anti-GST; buffer, salt, pH and temperature not stated; high values mean tight binding; most listed sequences are background and not binding sites; double strand, one strand shown.

Row | Sequence | binding signal [E-score]
1 | CCTAAACG | -0.0409
2 | CCAGAAGC | -0.12
3 | GGTATTGA | 0.13
4 | GGATAGCC | -0.175
5 | AACAGGGA | -0.0219
6 | ATGGTTTA | -0.0473
7 | CGCTTTTC | -0.0906
8 | CGCCTGCA | -0.0514
9 | CCTTCCAA | 0.0489
10 | GAGCCTGA | -0.225
11 | CAGGCTAC | 0.0322
12 | CGGGGCAG | 0.0491
13 | ACATTTCA | -0.185
14 | CACCGTAA | 0.147
15 | GATCGACC | -0.0785
16 | CGTCCGCA | 0.0357
17 | AGGTTGAT | -0.017
18 | GACGAGTA | -0.0741
19 | CACCGTCG | 0.267
20 | AGGCACGC | -0.178
21 | ACCAGCAA | -0.0731
22 | CTGCTAGC | -0.244
23 | ATGGTTCG | -0.0202
24 | GGACCCGA | -0.136
25 | AATAGCAC | 0.202

Row | Sequence | binding signal [E-score]
26 | AGAGTTTG | -0.185
27 | GACTGGCA | -0.197
28 | TAGACCTA | -0.253
29 | AAGCCATG | -0.227
30 | CACAGAAG | 0.117
31 | CATTGAAG | -0.0829
32 | GACGGTAC | -0.00061
33 | GGAGTACA | 0.246
34 | GCCCCAAC | -0.269
35 | AGATTCAG | -0.031
36 | CCGTCTGC | -0.0226
37 | GATGGGGC | -0.171
38 | ACGGTAGG | 0.0701
39 | GGAGGCCC | -0.167
40 | CTAGAGAG | -0.179
41 | CAGCACGA | -0.0715
42 | AAGCATCG | -0.0803
43 | GGGAAGAC | -0.111
44 | CACGCCCG | 0.237
45 | CCTCTGAC | 0.175
46 | AGGTATGG | -0.0114
47 | AATTCCAG | -0.248
48 | AATGGCGC | -0.195
49 | GCCATGAC | -0.0321
50 | TATGCTAA | -0.126

Row | Sequence | binding signal [E-score]
51 | ATGCGAAA | -0.112
52 | ACGGTCCA | -0.132
53 | AAGACGTG | 0.166
54 | CAGTCACC | 0.14
55 | AAGGTTCA | -0.146
56 | AAAGTCCT | -0.241
57 | CGCATCAA | -0.0928
58 | AATCTCCA | -0.0982
59 | AAGCAGAA | -0.209
60 | CGCTTCCC | -0.0547
61 | ATATGCGC | -0.0469
62 | AGGCAGCG | -0.0573
63 | ACATACAA | -0.243
64 | CCCTAATA | -0.0212
65 | GATACCCA | 0.362
66 | GTGGTGCA | 0.189
67 | ACTCCACT | 0.263
68 | CCGATGAG | 0.00878
69 | GCGTTGTA | -0.0954
70 | GAGCACCC | 0.283
71 | GGTGCCAA | 0.187
72 | AGACCTCA | -0.185
73 | ACGGATCC | 0.126
74 | ACTTATCT | -0.123
75 | AGTCCCAA | -0.196

Row | Sequence | binding signal [E-score]
76 | GCGTGTAA | 0.441
77 | GCCACTAA | -0.195
78 | GGTAACGA | 0.142
79 | GTTGAGAA | -0.16
80 | TATTCCAA | -0.0868
81 | ATCGTCCG | -0.00533
82 | CACACCTC | 0.403
83 | CTGGTTAC | 0.00475
84 | CGTTAGGC | -0.13
85 | TAATGTCA | -0.167
86 | GAACGTAC | -0.0228
87 | CTTTTTTA | -0.226
88 | ACCCGCTG | 0.138
89 | CCGTCGAC | 0.0973
90 | CATTATCA | 0.000485
91 | CCGTTGCG | -0.159
92 | AGTTCTCG | -0.273
93 | TAGCGTGA | -0.11
94 | GGGTTACA | 0.242
95 | ATGTGCCC | 0.0431
96 | CAAGGCGA | -0.0976
97 | CCTCTTAA | -0.0653
98 | TTCACGAA | -0.105
99 | ACCCCAAA | 0.205
100 | CCGGTACC | 0.0162

Row | Sequence | binding signal [E-score]
101 | CAAGTGTC | 0.379
102 | AGTAAACA | 0.0557
103 | TCACGTAA | -0.00818
104 | CCTTTTCA | -0.0263
105 | AACAAGCG | -0.117
106 | AAAATTGC | -0.136
107 | CGTTTCAA | -0.134
108 | ATCCAGTG | 0.22
109 | TACGTAAA | -0.24
110 | AGATAAGG | -0.00347
111 | CCACGTCG | 0.0654
112 | CAGATCTG | -0.189
113 | ACCCGAAT | 0.0523
114 | CCCGGAGA | 0.028
115 | GCTATCTA | -0.142
116 | TAAACAGA | -0.198
117 | AGAGTCGA | 0.0146
118 | TATTCAAA | -0.238
119 | AATATGGT | 0.103
120 | AGTATGTA | -0.116
121 | ACCGGAAT | 0.0575
122 | CGACTCCA | 0.275
123 | ACCGGTGC | 0.238
124 | CCTCGGGC | -0.0544
125 | TACGGTCA | -0.169

Row | Sequence | binding signal [E-score]
126 | AGTCGTAC | -0.0423
127 | ACTACGAT | 0.0959
128 | ATGAGAGC | -0.0859
129 | ATATGCAT | -0.197
130 | AGAGGGGG | 0.0956
131 | GATCCCTA | 0.24
132 | ACCATCGG | 0.00307
133 | ACTGTGAC | -0.0408
134 | ACGCCGTA | 0.102
135 | ACAAGACG | -0.0223
136 | GGACAGCC | -0.111
137 | GAAGAATA | -0.153
138 | GACGCAGA | -0.211
139 | AGCTTAAA | -0.219
140 | ACAACACC | 0.455
141 | GGTTACAA | 0.0449
142 | GGTCGCTA | -0.113
143 | GATGCTTA | -0.171
144 | CAGTGGCC | -0.226
145 | GACTAGAC | -0.105
146 | CAGTGTGG | 0.14
147 | AGTCATCC | -0.118
148 | CATACCAA | -0.0186
149 | CCATGCCA | 0.0163
150 | ACAAGAGC | -0.144

Row | Sequence | binding signal [E-score]
151 | CACTGTTA | 0.255
152 | GACCGCAA | -0.174
153 | CCCTGTCG | -0.054
154 | CTATGTTA | -0.164
155 | CACCAATA | 0.276
156 | CCACACTA | 0.206
157 | CCTAGCAG | -0.00109
158 | ATAATCTA | -0.0691
159 | CGGGCGCC | -0.183
160 | GCGTACGA | -0.152
161 | ACTATTGG | -0.129
162 | CCTTATCA | -0.0608
163 | CCAGCAAA | -0.137
164 | TAACATAA | -0.175
165 | TATGAACA | 0.0259
166 | AAGAGATG | -0.0559
167 | GGCAAGCC | -0.216
168 | CGCGGCTC | -0.0831
169 | CCTGTTCG | -0.0401
170 | CAGCATTA | -0.235
171 | GTACAACA | 0.2
172 | CTATACTA | -0.0546

Source: publication PMC10668032
